Records with an inconclusive call do not appear. Unless noted, calls follow the shape of the full dose curve. More than one record can exist for a structure, and the calls need not agree. Some entries of the source have several records that differ or are many. They are shown here; other results are not. The source may hold further records. The values listed for one entry are repeated measurements (runs, samples, wells, individuals or studies). A tag in brackets gives the origin of a value. Letters count within one entry.
What was measured:
[1] = qHTS for Inhibitors of the Functional Ribonucleoprotein Complex (vRNP) of Lassa (LASV) Arenavirus: Viability assay - alamar blue signal for LASV Primary Screen (AID 1347083; calls by dose curve; tested in HEK293 reporter line; also: nearly all actives have a fitted effect of over 80% in size); settings: cell viability, alamar blue fluorescence (LASV minigenome counter-screen); series mostly up to 57.5 µM
[2] = qHTS for Inhibitors of the Functional Ribonucleoprotein Complex (vRNP) of Lymphocytic Choriomeningitis Arenaviruses (LCMV): Viability assay - alamar blue signal for LCMV Primary Screen (AID 1347085; calls by dose curve; tested in HEK293 reporter line; also: nearly all actives have a fitted effect of over 80% in size); settings: alamar blue viability counter-screen, LCMV vRNP screen cells; series mostly up to 57.5 µM
[3] = qHTS for Inhibitors of the Functional Ribonucleoprotein Complex (vRNP) of Lassa (LASV) Arenavirus: LASV Primary Screen - GLuc reporter signal (AID 1347082; calls by dose curve; tested in HEK293 reporter line; also: nearly all actives have a fitted effect of over 60% in size); settings: LASV minigenome vRNP, Gaussia luciferase reporter; series mostly up to 57.5 µM
[4] = molecular target: Nucleoprotein (Lymphocytic choriomeningitis virus (strain Armstrong)) (UniProt P09992); test: qHTS for Inhibitors of the Functional Ribonucleoprotein Complex (vRNP) of Lymphocytic Choriomeningitis Arenaviruses (LCMV): LCMV Primary Screen - GLuc reporter signal (AID 1347086); settings: LCMV minigenome vRNP cell assay, Gaussia luciferase reporter; series mostly up to 57.5 µM; also: nearly all actives have a fitted effect of over 70% in size
[5] = qHTS of pediatric cancer cell lines to identify multiple opportunities for drug repurposing: Primary screen for SJ-GBM2 cells (AID 1347091; active = well fitted cell-killing curve with a large enough effect); settings: SJ-GBM2 viability, CellTiter-Glo luminescence, 48 h; series mostly up to 46 µM
Procedure, shortened: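 Eight- or eleven-point concentration series, 48 h treatment at 37 degrees C in growth media; readout CellTiter-Glo luminescence. Potency and efficacy were taken from the concentration-response curves.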

[6] = qHTS of pediatric cancer cell lines to identify multiple opportunities for drug repurposing: Primary screen for NB-EBc1 cells (AID 1347095; active = well fitted cell-killing curve with a large enough effect); settings: NB-EBc1 neuroblastoma viability, CellTiter-Glo luminescence, 48 h; series mostly up to 46 µM
[7] = qHTS of pediatric cancer cell lines to identify multiple opportunities for drug repurposing: Primary screen for Saos-2 cells (AID 1347097; active = well fitted cell-killing curve with a large enough effect; also: nearly all actives have a fitted effect of over 40% in size); settings: Saos-2 viability, CellTiter-Glo ATP luminescence, 48 h; series mostly up to 46 µM
Procedure, shortened: (§1)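 500-1,000 cells/well; 5 h pre-incubation 37 °C/5% CO2; compound pinned; 48 h; CellTiter-Glo, 15 min RT; luminescence. MIPE 11-pt from 0.78 nM, NPC 8-pt from 0.59 nM final. Bortezomib 2.3 µM final as positive control.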

[8] = qHTS of pediatric cancer cell lines to identify multiple opportunities for drug repurposing: Primary screen for LAN-5 cells (AID 1347100; active = well fitted cell-killing curve with a large enough effect); settings: LAN-5 neuroblastoma viability, CellTiter-Glo luminescence, 48 h; series mostly up to 46 µM
Procedure, shortened: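 Cells (500-1,000/well) in growth media were settled 5 h at 37 degrees C, then given compounds for 48 h. Viability was read as CellTiter-Glo luminescence. Primary runs used MIPE at 11 points (0.78 nM-46 µM) and NPC at 8 points (0.59 nM-46 µM); follow-ups used 11 points.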

[9] = qHTS of pediatric cancer cell lines to identify multiple opportunities for drug repurposing: Primary screen for OHS-50 cells (AID 1347103; active = well fitted cell-killing curve with a large enough effect; also: nearly all actives have a fitted effect of over 40% in size); settings: OHS-50 osteosarcoma viability, CellTiter-Glo luminescence, 48 h; series mostly up to 57.3 µM
Procedure, shortened: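 Cells (500-1,000/well) rested 5 h, then received compounds for 48 h; metabolically active cells were measured by CellTiter-Glo luminescence. Final concentrations spanned up to 46 µM (MIPE, 11-point) or 0.59 nM-46 µM (NPC, 8-point) in primary screens, 11-point in follow-ups.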

[10] = qHTS of pediatric cancer cell lines to identify multiple opportunities for drug repurposing: Primary screen for MG 63 (6-TG R) cells (AID 1347105; active = well fitted cell-killing curve with a large enough effect; also: nearly all actives have a fitted effect of over 50% in size); settings: MG 63 (6-TG R) viability, CellTiter-Glo, 48 h; series mostly up to 46 µM
Procedure, shortened: as §1
Potency is read from the fitted curve at half-maximal effect.

UniProt P09992, sequence (P09992 whole entry, looked up): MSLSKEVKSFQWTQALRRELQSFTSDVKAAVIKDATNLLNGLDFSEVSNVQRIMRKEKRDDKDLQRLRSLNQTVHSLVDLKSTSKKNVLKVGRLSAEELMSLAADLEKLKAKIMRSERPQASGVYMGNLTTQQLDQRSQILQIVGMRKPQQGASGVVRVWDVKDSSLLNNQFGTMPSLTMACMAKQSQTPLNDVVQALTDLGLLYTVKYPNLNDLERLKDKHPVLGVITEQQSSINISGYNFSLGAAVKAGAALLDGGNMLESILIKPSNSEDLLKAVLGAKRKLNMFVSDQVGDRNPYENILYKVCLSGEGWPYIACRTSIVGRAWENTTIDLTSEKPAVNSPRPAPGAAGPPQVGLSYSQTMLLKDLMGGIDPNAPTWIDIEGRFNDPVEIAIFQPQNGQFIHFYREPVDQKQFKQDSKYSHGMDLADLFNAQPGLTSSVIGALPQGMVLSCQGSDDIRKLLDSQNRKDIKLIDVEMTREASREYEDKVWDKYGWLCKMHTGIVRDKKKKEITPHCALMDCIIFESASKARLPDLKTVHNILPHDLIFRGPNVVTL

With `CC(S)C(=O)NCC(=O)O` (stereo unspecified) the Potency [1] was “active: 21.7 µM [sample A] and inactive [sample B]”.

For `NC12CC3CC(CC(C3)C1)C2`, the Potency [1] was “inactive [sample A] and active: 19.3 µM [sample B] and inactive [sample C]”.

In the case of `O=C(C1CCCCC1)N1CC(=O)N2CCc3ccccc3C2C1` (stereo unspecified), the Potency [1] was “inactive [sample A] and inactive [sample B] and active: 12.2 µM [sample C]”.

In the case of `CN(CCOc1ccc(NS(C)(=O)=O)cc1)CCc1ccc(NS(C)(=O)=O)cc1`, the Potency [2] was “active: 24.3 µM [sample A] and inactive [sample B]”.

In the case of `CCCCc1oc2ccccc2c1C(=O)c1cc(I)c(OCCN(CC)CC)c(I)c1`, the Potency [3] was “inactive [sample A] and active: 7.69 µM [sample B] and inactive [sample C]”, the Potency [1] was “inactive [sample A] and active: 19.3 µM [sample B] and inactive [sample C]” and the Potency [2] was “inactive [sample A] and active: 3.43 µM [sample B] and inactive [sample C]”. The Potency [4] was “inactive [sample A] and active: 1.93 µM [sample B] and inactive [sample C]”.

With `CCC(C)(C)C(=O)O[C@H]1C[C@@H](C)C=C2C=C[C@H](C)[C@H](CC[C@@H]3C[C@@H](O)CC(=O)O3)[C@H]21` the Potency [1] was “inactive [sample A] and active: 24.3 µM [sample B]”, the Potency [2] was “inactive [sample A] and active: 19.3 µM [sample B]” and the Potency [4] was “inactive [sample A] and active: 43.2 µM [sample B]”.

In the case of `COc1cc2ncnc(Nc3ccc(F)c(Cl)c3)c2cc1OCCCN1CCOCC1`, the Potency [4] was “active: 2.5 µM [sample A] and inactive [sample B]”.

In the case of `Nc1nc(F)nc2c1ncn2[C@@H]1O[C@H](CO)[C@@H](O)[C@@H]1O`, the Potency [3] was “inactive [sample A] and active: 4.85 µM [sample B]”, the Potency [1] was “inactive [sample A] and active: 2.17 µM [sample B]” and the Potency [2] was “inactive [sample A] and active: 2.73 µM [sample B]”. For the same compound, the Potency [4] was “inactive [sample A] and active: 1.72 µM [sample B]”.

In the case of `COc1cc([C@@H]2c3cc4c(cc3[C@H](O)[C@H]3COC(=O)[C@H]23)OCO4)cc(OC)c1OC`, the Potency [1] was “inactive [sample A] and active: 3.1 nM [sample B]”, the Potency [2] was “inactive [sample A] and active: 6.9 nM [sample B]” and the Potency [4] was “inactive [sample A] and active: 15.3 nM [sample B]”.

With `Cc1ccc(S(=O)(=O)NC(=O)NN2CC3CCCC3C2)cc1` (stereo unspecified) the Potency [3] was “inactive [sample A] and active: 21.7 µM [sample B]” and the Potency [1] was “inactive [sample A] and active: 21.7 µM [sample B]”.

With `CC1(CN2CCC(n3c(=O)[nH]c4ccccc43)CC2)OCc2ccccc2-n2cccc21` (stereo unspecified) the Potency [1] was “active: 21.7 µM [sample A] and inactive [sample B]”.

For `Cn1cc(C2=C(c3cn(C4CCN(Cc5ccccn5)CC4)c4ccccc34)C(=O)NC2=O)c2ccccc21`, the Potency [1] was “active: 19.3 µM [sample A] and inactive [sample B]”, the Potency [2] was “active: 17.2 µM [sample A] and inactive [sample B]” and the Potency [4] was “active: 21.7 µM [sample A] and inactive [sample B]”. For the same compound, the Potency [5] was “active: 2.35 µM [sample A] and inactive [sample B]”, the Potency [6] was “active: 662 nM [sample A] and inactive [sample B]” and the Potency [7] was “active: 4.69 µM [sample A] and inactive [sample B]”. The Potency [8] was “active: 2.35 µM [sample A] and inactive [sample B]”, the Potency [9] was “active: 3.06 µM [sample A] and inactive [sample B]” and the Potency [10] was “active: 11.8 µM [sample A] and inactive [sample B]”.

Source: PubChem BioAssay (NCATS)
